# The full ranking holds about 33,000 sequences; the median of “E-score (-0.5 to 0.5)” is about -0.016, and the highest 2% start at about 0.32. This is one part of the list.
# Target: T1, Stp1 (UniProt B3LFK1)
# T1 sequence: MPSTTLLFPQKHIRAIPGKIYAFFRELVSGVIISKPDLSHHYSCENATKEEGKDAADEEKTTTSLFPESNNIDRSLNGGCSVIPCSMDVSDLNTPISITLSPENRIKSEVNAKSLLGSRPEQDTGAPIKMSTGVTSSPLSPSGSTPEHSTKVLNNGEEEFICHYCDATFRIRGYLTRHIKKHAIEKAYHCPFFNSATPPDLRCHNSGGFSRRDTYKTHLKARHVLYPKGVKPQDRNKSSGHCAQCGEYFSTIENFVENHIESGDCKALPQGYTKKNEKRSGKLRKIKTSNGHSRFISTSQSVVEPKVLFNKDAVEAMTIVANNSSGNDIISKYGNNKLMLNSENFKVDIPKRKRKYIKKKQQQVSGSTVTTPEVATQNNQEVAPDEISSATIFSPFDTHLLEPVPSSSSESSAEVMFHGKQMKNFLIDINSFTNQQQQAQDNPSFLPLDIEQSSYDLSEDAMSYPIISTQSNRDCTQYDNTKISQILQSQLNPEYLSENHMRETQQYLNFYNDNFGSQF
# Assay: PBM E-score (8-mer binding enrichment) (E-score (-0.5 to 0.5)); higher = stronger / more preferred TF binding; most listed sequences are background and not binding sites
# Details: protein concentration: 200 nM; construct: GST-full length
# Summary of the method: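 GST-tagged yeast TFs (full-length or DNA-binding domain) were made by PURExpress in vitro transcription/translation and applied at about 100-200 nM to universal all-10-mer Agilent arrays. The arrays were made double-stranded by primer extension, on fresh or once-stripped slides. Bound protein was detected with fluorescent anti-GST, and scans were normalised with masliner. Each ungapped eight-base word, pooled with its reverse complement, received an E-score (modified Wilcoxon-Mann-Whitney statistic) from the Universal PBM Analysis Suite.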
row,Sequence,PBM E-score
1,ACTAATGA,0.0327
2,GAGGGTAC,-0.22
3,AGGTGATC,-0.144
4,ACGTCCAT,-0.117
5,ATCCTACC,-0.202
6,CTCGCAGA,-0.138
7,AGCCGGTG,0.0208
8,CAGCAGGC,0.0171
9,CGGACTAC,0.00117
10,ACTTAGAG,-0.19
11,AGCGCAGG,-0.296
12,ACAGTCTC,-0.295
13,CGATCACG,0.145
14,CGGCCACG,0.168
15,CGCGAAGC,0.129
16,CAGGATTC,-0.173
17,GCACCTTA,0.063
18,ACTATGTG,0.00594
19,ATTACTGG,0.0241
20,GGGTGTAC,-0.248
21,ACCTGACA,-0.0993
22,AGTACATG,-0.015
23,GTAGTCGA,-0.0735
24,AAGCATGT,0.00739
25,GATAAAGC,0.142

row,Sequence,PBM E-score
1,ACTTCCGG,-0.00566
2,CAGCGGTC,-0.262
3,ACCTGAAA,0.0529
4,AAGGGAGC,-0.262
5,CCGGATCC,-0.15
6,CCCAGTCA,-0.288
7,ACTCAAAG,-0.0443
8,AACAAACT,0.23
9,CCACCCGG,-0.218
10,CAAACGAA,0.116
11,AGTGGTCA,-0.0977
12,ATGAGGTC,-0.273
13,AAGCGTGA,0.0531
14,CCGGATGA,-0.156
15,AGCAAGCC,-0.114
16,CTCAGCGA,-0.129
17,CCTCGACC,-0.183
18,CTTTAATA,0.252
19,CTACCGAG,-0.0565
20,ACATGCAG,-0.0406
21,AACAGGTA,0.0488
22,AATAGGCC,-0.0433
23,CTAGTGGC,-0.0105
24,AGACAAAC,-0.0973
25,CGTCGAAC,-0.0999

row,Sequence,PBM E-score
1,AGACCCCG,-0.222
2,CTGCACTC,0.109
3,GCCAGTCC,-0.0719
4,AGAGCCAT,0.15
5,ATAAGCGC,0.137
6,ATGAGTCC,-0.129
7,AAATTTGG,-0.0647
8,CAGTTCCG,-0.148
9,GACCCCTA,-0.252
10,GATCGAGC,-0.0292
11,AGCCCGAC,-0.175
12,ACCTATCT,-0.171
13,ACTGTTTC,-0.247
14,CGCGGCAG,0.378
15,CCCACGTC,-0.0308
16,CTTGCACA,-0.0455
17,GACAAAGC,0.242
18,AATGAGGG,-0.0629
19,CACACAGA,0.0722
20,GTTGTCTA,0.0131
21,ATCGACAG,-0.0194
22,GGAGTAGA,-0.0824
23,ACGCGTAT,0.136
24,AGCCTAAG,-0.235
25,TATCGATA,0.106

row,Sequence,PBM E-score
1,ACCTGGAT,-0.266
2,CTTGTCGA,-0.0456
3,ACTGTCCA,-0.0599
4,CCAAGACG,-0.0997
5,CGTCTAAG,0.0634
6,AGCTGGTC,-0.166
7,AACCTATA,0.158
8,CCCGCCCA,0.0228
9,ACCAACAG,-0.0976
10,ACCCCGCC,0.0989
11,CAGCTCAC,-0.146
12,CTTTGTCC,0.0784
13,CAATCTGA,-0.0131
14,ACACCCCT,-0.252
15,ACCAGGAA,-0.0358
16,ACTAGCCT,0.0146
17,AACCTGGT,-0.107
18,CGTCAGAA,-0.206
19,CTCTTTCA,-0.0859
20,ACCTTCGT,-0.127
21,AGGGTGTG,-0.225
22,GAGTCGGC,-0.00288
23,GGCAGACC,-0.139
24,AGTGGCGC,0.274
25,GCGTACCA,-0.0547

row,Sequence,PBM E-score
1,GTTCGGAA,0.0618
2,GGCTAGGA,-0.131
3,CCCCTTCA,-0.353
4,ACGTTAGT,-0.00135
5,ATCCAGAT,-0.0899
6,TCAGCACA,-0.0167
7,ACGGATGA,0.00733
8,CCGATCGG,0.265
9,AAATGCTT,0.0515
10,AATCCGCC,0.00235
11,CTCCATGC,-0.143
12,CTTGGAAC,-0.005
13,GGCAGCAC,-0.0121
14,CACAACTG,-0.176
15,AAATAGCC,0.105
16,CAGATCCG,0.0523
17,TAGGCTCA,-0.102
18,CAGCACCA,-0.259
19,GTTCTGAA,0.115
20,CGGAGCGC,0.0468
21,TAATAATA,0.173
22,CTATACAA,-0.0692
23,GCGGCGCA,0.463
24,ATTGGTGC,0.181
25,GAACAAGA,0.0487

row,Sequence,PBM E-score
1,GGTCCGGA,-0.11
2,CGATGTTC,-0.271
3,GCAAAGCC,-0.0595
4,AAAACTAG,0.119
5,CCAGAACA,-0.167
6,ATCGTTTC,-0.0261
7,GAGGAGCA,-0.162
8,CGGGCGTA,-0.219
9,CGGTCTAA,-0.0537
10,TCTTGACA,-0.0665
11,ACTAAGTG,0.0697
12,CCTGCACC,-0.271
13,GAGCATGA,-0.205
14,GAAGTATA,0.169
15,AAAGATGG,-0.0774
16,GCGTTCTA,0.0431
17,CACGGTAC,0.0963
18,CATTATCC,0.138
19,GACCATGA,-0.161
20,ACCAGACA,0.0143
21,CTAGTCGA,-0.0849
22,AAGGCTGC,0.0184
23,CTTTCAGA,0.0093
24,TGCAGACA,-0.0811
25,AAAAAGTC,0.0273

row,Sequence,PBM E-score
1,AACGACAT,0.0854
2,CAACGAGC,-0.175
3,AATCGTGC,0.24
4,GTCCAAAA,0.172
5,TGAATCCA,0.0457
6,CTGAACCA,-0.0476
7,CTAGGCGC,0.176
8,TCATGGGA,-0.129
9,AGTGAGAC,-0.114
10,GAAGTAAA,0.0309
11,AATGCCTA,0.0902
12,ACTTACCT,-0.2
13,CGCCAATA,0.0927
14,CGACGGCG,0.353
15,CAGCTGAG,-0.105
16,CACTCCAG,-0.076
17,ACAGCAGC,0.11
18,GGACGTAC,-0.0892
19,AGTAGTAT,0.0866
20,AACTTGAT,0.174
21,CGAGTCAG,-0.0885
22,CTATACCA,-0.00216

# Source: the supplement of paper PMC3334620
